Laboratory results: patent publication US9689040B2, “Selective inhibitors of tumor-initiating cells” (Children's Medical Center Corporation, priority 2011, dated 2017)

How the values were obtained:
[1] = system: BPLER cells; test: ATP levels after exposure to BRPA; type: cell-based, human; settings: exposure for 4 hours, when most cells were viable
[2] = system: HMLER cells; test: ATP levels after exposure to BRPA; type: cell-based, human; settings: exposure for 4 hours, when most cells were viable

**Q.** Which “decrease of ATP levels” value [1] does the source give for `O=C(O)C(=O)CBr` [BRPA, 3-bromo-pyruvic acid] here?
**A.** 90%

**Q.** What about the “decrease of ATP levels” value [2] of the same molecule?
**A.** 60%
